# According to PubChem BioAssay AID485344 (National Center for Advancing Translational Sciences (NCATS), 2010):
# Among all 340,000 compounds or so, about 6,900 (2%) were called active. No stated cut-off is given here; in the data, active means inhibition above about 30%; inactive means below that, where a call was filed. The list shows a part of the results, in another mix than the full data. Where no call is shown, the source filed none.
# Target: D(2) dopamine receptor (Homo sapiens) (UniProt P14416)
# Sequence of UniProt P14416 (P14416 whole entry, looked up): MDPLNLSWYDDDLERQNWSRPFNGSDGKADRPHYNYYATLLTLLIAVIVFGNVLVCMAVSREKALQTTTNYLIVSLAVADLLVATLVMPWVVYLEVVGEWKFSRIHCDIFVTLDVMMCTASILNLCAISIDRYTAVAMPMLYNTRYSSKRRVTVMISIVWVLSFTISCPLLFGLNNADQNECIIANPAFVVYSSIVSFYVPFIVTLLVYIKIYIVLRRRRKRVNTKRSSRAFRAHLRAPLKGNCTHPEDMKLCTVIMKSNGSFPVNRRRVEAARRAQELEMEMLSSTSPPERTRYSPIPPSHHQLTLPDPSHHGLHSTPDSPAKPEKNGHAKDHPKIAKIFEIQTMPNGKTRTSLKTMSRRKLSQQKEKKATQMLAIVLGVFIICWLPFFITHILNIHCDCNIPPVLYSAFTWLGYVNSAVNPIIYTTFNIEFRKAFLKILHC
# Assay: HTS Assay for Allosteric Antagonists of the Human D2 Dopamine Receptor: Primary Screen for Antagonists; further: 0% is about no effect
# Conditions: HEK293 TREx D2 cells, calcium flux, dopamine EC80; at 10 µM; stronger effect = higher value
# In short: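 Measurement of antagonist activity uses fluorescent calcium dye in inducible HEK293 T-REx D2 cells: 10 s baseline, compound addition with 180 s read, EC80 dopamine addition with a further 180 s read.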
row,SMILES,inhibition
1,COc1ccc(C(=O)Nc2nc3ccc(S(=O)(=O)N4CCCC4)cc3s2)cc1,7.1%
2,O=C(Nc1ccc(O)c(-c2nc3ccccc3o2)c1)c1cccs1,4.31%
3,COc1ccc2oc(=O)cc(CN3CCN(C(=O)c4ccccc4)CC3)c2c1,6.75%
4,Cc1ccc(C)c(CN2C(=O)c3ccccc3Sc3ccc(C(=O)NCCCOC(C)C)cc32)c1,1.96%
5,O=C(CSc1n[nH]c(-c2ccccc2Cl)n1)N1CCN(c2ccc(F)cc2)CC1,-14.2%
6,CCOC(=O)c1ccc(N2C(=O)c3n[nH]c(C)c3C2c2ccc(C(C)C)cc2)cc1 (stereo not given),9.03%
7,CC(C)c1nn2c(=O)cc(COC(=O)c3ccc(NC(=O)c4ccccc4Cl)cc3)nc2s1,19.3%
8,Cc1cccc(NS(=O)(=O)c2nnc(NC(=O)C3CCCCC3)s2)c1,-2.25%
9,COc1ccc(CNC(=O)c2cc(Nc3ccc(OC)cc3OC)nc3ccccc23)cc1,-6.22%
10,CCOC(=O)c1ccc(NC(=O)c2ccc3c(c2)CCN3S(=O)(=O)c2ccc(Cl)cc2)cc1,17.6%
11,COc1cc2[nH]c(=O)n(Cc3ccc(C(=O)N4CCN(c5cccc(C)c5C)CC4)cc3)c(=O)c2cc1OC,17%
12,COc1ccc(CCNC(=O)Cn2nnc(-c3cccc(C(F)(F)F)c3)n2)cc1OC,8.56%
13,Cc1ccc(-n2nc(CO)c(C(=O)NCCO)n2)cc1,7.45%
14,CC(CNC(=O)c1ccc(Cn2c(SCc3ccccc3)nc3cccnc32)cc1)c1ccccc1 (stereo not given),-16.4%
15,Cc1ccccc1C(=O)NCc1ccc2c(c1)CCN2C(=O)c1ccccc1,-17.8%
16,CCn1c(=O)c2sccc2n2c(CCCC(=O)N3CCN(c4ccccc4OC)CC3)nnc12,2.64%
17,CCOC(=O)N1CCC(NC(=O)c2cnn(-c3cccc(C)c3)c2C2CCN(C(=O)OC(C)(C)C)CC2)CC1,-2.49%
18,O=C(c1ccc(F)cc1)N1c2ncnn2C2(CCCCC2)[C@@H]2CCCC[C@@H]21,6.43%
19,COc1ccc(CNC(=O)C(=O)NCC(c2cccs2)S(=O)(=O)c2ccc(C)cc2)cc1 (stereo not given),1.12%
20,CCn1c(SCC(=O)Nc2cccc(Cl)c2)nnc1-c1nonc1NC(C)=O,2.98%
21,CCCC(c1nnnn1CS(=O)(=O)c1ccc(C)cc1)N1CCN(c2ccc(F)cc2)CC1 (stereo not given),active: 59.3%
22,CCN(CC)c1ccc(NC(=O)c2c(OC)cccc2OC)c(C)c1,active: 33.6%
23,COC(=O)c1cc(Cl)ccc1NC(=O)Cn1c(C)cc(C)c(C#N)c1=O,17.3%
24,CC(C)NC(=O)c1nn(C)c2c1CS(=O)(=O)c1ccccc1-2,-27.7%

row,SMILES,inhibition
1,CC(=O)Nc1ccc2nc(SCc3ccccc3)sc2c1,6.69%
2,Clc1ccc(CN2CCc3nc(Nc4ccc5c(c4)OCCO5)ncc3C2)cc1,7.75%
3,COc1ccccc1CNc1nc(-c2ccco2)nn1S(=O)(=O)c1ccc(C)cc1,-5.85%
4,CCOc1ccccc1CN(CCc1ccc2c(c1)OCO2)Cc1cc(OC)c(OC)cc1OC,-12.4%
5,CCc1ccc(Sc2cc(C(=O)NCCCN3CCCC(C)C3)c3ccccc3n2)cc1 (stereo not given),12.3%
6,Cc1ccc(NC(=O)CN2CCN(C3CCCCC3)C(=O)C2=O)cc1,-23%
7,Cc1ccccc1CCNCc1c(C(=O)O)c(C)n(Cc2c(F)cccc2Cl)c1C,-5.7%
8,O=c1cc(COc2cccc(C(F)(F)F)c2)nc2sc3c(n12)CCCC3,-11.2%
9,Cc1ccc(-n2ncc(C(=O)N3CCN(C4CCCCC4)CC3)c2C2CCN(C(=O)OC(C)(C)C)CC2)cc1,-4.89%
10,Cc1c(Cl)cccc1NC(=O)CN1C(=O)CSc2ccc(S(=O)(=O)N3CCCC3)cc21,-6.02%
11,COc1ccccc1/C=C/c1nc(C#N)c(NC(C)c2ccccc2)o1 (stereo not given),-6.01%
12,CC(=O)c1ccc(N2CCN(C(=O)Cn3ncc4c3-c3ccccc3OC4)CC2)cc1,-11%
13,CCOc1ccc(NC(=O)c2cnn3c(C(F)F)cc(-c4ccc(C)cc4)nc23)cc1,4.12%
14,CC(=O)c1cc(-c2ccc(F)cc2)n(CCC(=O)NCc2ccc(C)cc2)c1C,0.253%
15,O=C(Nc1cccc(C(=O)N2CCN(c3ccc(F)cc3)CC2)c1)c1nsc2ccccc12,-7.29%
16,Cc1oc2ccc(O)c(CN3CCN(Cc4ccccc4)CC3)c2c1C(=O)Nc1cccc(Cl)c1C,-2%
17,CCOC(=O)c1c(NC(=O)c2ccc(S(=O)(=O)N(C)C)cc2)sc2c1CCN(C)C2,14.3%
18,COc1cc(CNc2cccc(C(=O)O)c2)cc(Br)c1OCC(=O)NC(C)(C)C,active: 59.7%
19,CCc1ccc(-c2cc(C)no2)cc1S(=O)(=O)NCCc1ccccc1,active: 30.4%
20,CCCCCCNc1ncnc2c1sc1nc(N3CCOCC3)c3c(c12)CCCC3,-5.9%
21,COc1ccc(NC(=O)Cn2c(=O)n(CC3CCCO3)c(=O)c3ccccc32)cc1 (stereo not given),-3.08%
22,CCCCSCCCNC(=O)c1cc(-c2cccnc2)nc2ccc(S(=O)(=O)N3CCC(C)CC3)cc12,7.22%
23,COc1cccc(/C=N/NC(=O)CN2CC(c3ccccc3)CC2=O)c1OC (stereo not given),active: 38.1%
24,O=C(CSc1nc(=O)[nH]c2c1CCCC2)NCc1ccc(Cl)cc1,-4.15%

row,SMILES,inhibition
1,CCOC(=O)c1c(NC(=O)/C=C/c2ccc(OC)cc2)sc2c1CCC(C)C2 (stereo not given),2.79%
2,Cc1ccccc1C(=O)Nc1sc2c(c1C(=O)N1CCC(C)CC1)CCCC2,-15.9%
3,CC(=O)NNC(=O)CN1C(=O)/C(=C/c2ccccc2)SC1=S,active: 73.7%
4,Cc1ccc(-c2csc(NC(=O)C[n+]3cc(-c4ccccc4)n4c3CCC4)n2)cc1,active: 63.8%
5,CCN(CCCNC(=O)c1cc2c(=O)[nH]c3ccc(C)cc3c2s1)Cc1ccccc1,-10.6%
6,Cc1cccc(CNC(=O)c2ccc(Cn3c(SCc4ccccc4)nc4cccnc43)cc2)c1,7.77%
7,CCc1ccc2oc(C(=O)Nc3nc(-c4ccccc4)ns3)c(C)c2c1,-9.28%
8,Cc1ccc(OC(C)C(=O)NCC2(N3CCOCC3)CCCCC2)cc1C (stereo not given),-1.22%
9,COc1ccccc1CNC(=O)CCC1N=C2c3ccccc3N=C(SCC(=O)NCCc3ccccc3)N2C1=O (stereo not given),2.75%
10,Cc1c(C(=O)N(C)C)sc2c1c(=O)n(-c1ccc(F)cc1)c(=O)n2CC(=O)N(C)c1ccccc1,-17.5%
11,COc1ccc(Cl)cc1NC(=O)c1nc(S(C)(=O)=O)ncc1N(Cc1ccc(C)cc1)Cc1ccco1,-5.56%
12,Cc1ccc(C)c(NC(=O)Cn2c(=O)oc3cc(S(=O)(=O)NCc4ccccc4)ccc32)c1,-8.2%
13,Cc1cc2oc(C(=O)Nc3ccc(S(=O)(=O)Nc4onc(C)c4C)cc3)cc(=O)c2cc1C,-8.97%
14,COc1ccc(CN2CCN(Cc3cccc(Oc4ccccc4)c3)CC2)c(OC)c1OC,active: 33.9%
15,Cc1ccc(Cn2c(=O)c3cccnc3n(Cc3ccc(F)cc3)c2=O)cc1,8.4%
16,CN(C)C(CNC(=S)Nc1cccc(Cl)c1)c1ccccc1 (stereo not given),active: 55%
17,COc1cccc(N2CCN(c3ncc4c(n3)CCN(Cc3ccc(Br)cc3)C4)CC2)c1,-0.436%
18,Cc1cccc(Nc2nc3ccccc3n3c(N)nnc23)c1,2.08%
19,Cc1cc2n(n1)CCCN2C(=O)Nc1cccc(C)c1C,-12.6%
20,Cc1cccc(CSCCNC(=O)CN(c2ccccc2)S(=O)(=O)N(C)C)c1,-4.54%
21,Cc1ccc(S(=O)(=O)c2cn(CC(=O)Nc3ccc4c(c3)OCO4)c3ccc(F)cc3c2=O)cc1,-4.11%
22,CCSC1=NC2(CCN(C(=O)NC3CCCCC3)CC2)N=C1c1ccc(C)c(C)c1,-1.49%
23,Cc1noc(C)c1S(=O)(=O)NCCc1csc2nc(-c3ccc(F)cc3)nn12,15.8%
24,COc1ccc(CC(=O)NNC(=O)c2cc(C)oc2C)cc1OC,active: 32%

row,SMILES,inhibition
1,Cc1ccc(NC(=O)[C@H](Cc2ccccc2)N2Cc3ccccc3C2=O)cc1,-15.3%
2,CCOC(=O)c1c(NC(=O)c2cc3ccccc3c(=O)o2)sc2c1CCCC2,-15.8%
3,COc1ccc(OC)c(NC(=O)CCc2c(C)nc3c(-c4ccccc4)c(C)nn3c2C)c1,-12.7%
4,CCc1cccc(NC(=O)c2ccc3c(=O)n4nc(Nc5ccccc5OC)sc4nc3c2)c1,2.67%
5,COc1nc(Oc2ccc(=O)n(-c3ccccc3)n2)nc(N(C)C)n1,-13.9%
6,CCCN(CCC)CCNC(=O)c1cc(Sc2ccc(Cl)cc2)nc2ccccc12,13.6%
7,COc1ccc(CNC(=O)C(=O)NCC(c2cccnc2)N2CCN(c3ccccc3F)CC2)cc1 (stereo not given),22.7%
8,COCCn1c(C)cc(C(=O)COC(=O)c2ccc[nH]c2=O)c1C,active: 62.3%
9,COc1ccc(-c2[nH]ncc2C(=O)NCc2ccccc2OC)cc1,8.03%
10,Cc1ccc(NC(=O)CN(C)S(=O)(=O)c2cccc3nsnc23)c(C)c1,-1.25%
11,COc1cc(C2C(=O)N(C3CCC(C)CC3)CC(=O)N2CCc2ccc(Cl)cc2)ccc1OC(C)C (stereo not given),23.5%
12,CCOC(=O)Cc1csc(NC(=O)COc2ccc3ccccc3c2)n1,active: 58.7%
13,COc1ccc(/C=N/NC(=O)c2nnn(-c3nonc3N)c2-c2cccc(OC)c2)cc1,active: 34.2%
14,Cc1cc(C)n(-c2nc3cc(Cl)c(Cl)cc3nc2Nc2c(C)cccc2C)n1,5.68%
15,COc1ccc(/C=C2\CCCc3c2nc2ccccc2c3C(=O)O)cc1OC,active: 31%
16,CCN(c1ccccc1)S(=O)(=O)c1nnc(NC(=O)COc2ccccc2F)s1,22.8%
17,Cn1cc(S(=O)(=O)N2CCCCC2)cc1C(=O)N1CCN(c2ccccc2F)CC1,-4.3%
18,COc1cccc(-c2csc(-c3c(N)c(C(=O)c4ccccc4)n4ccccc34)n2)c1,-0.43%
19,O=C(COc1ccc2ccccc2c1)NNC(=O)c1ccccc1,active: 47.6%
20,CCOC(=O)c1ccccc1NC(=O)Cn1c(=O)n(CCCC(=O)NCc2ccc3c(c2)OCO3)c(=O)c2ccccc21,14.8%
21,CCOC(=O)C(=O)Nc1nnc2n1CCS2,-17.2%
22,CCOc1ccc(Nc2ncnc3c2cnn3-c2ccc(F)cc2)cc1,8.95%
23,Cc1nc2c(C(=O)NCc3ccccc3Cl)cnn2c(C)c1Cc1ccccc1,2.43%
